Self-cleavage data for 56 variants are collected here from the RNAGym collection of RNA variant scans (doi:10.7554/elife.90254).

B1: LINE1-mini (parent)
chain: GGCAGAGCUCAACACAGCGUGGCAAAGUGGCUGUGGCUAGACUGCC

Read counts are not given, so values of variants with three or more changes are uncertain.

In this data set the parent is B1. In words: self-cleavage, relative activity (ratio to wild type); higher = more cleavage; in vitro, sequencing; the parent is a self-cleaving ribozyme.
For GCCAGGGCUAAACACAGCGUGGCAAAGUCGCUGUGGCUAGACGGGC [G2C A6G C10A G29C U43G C45G], the self-cleavage was found to be 0.
Take GCCAGAGCUCAUCACAGCGUGGCAAGGUGGCUGUGUCUAGACUGCA [G2C A12U A26G G36U C46A]: the self-cleavage turned out to be 0.04.
Turning to GACAGAGCUCAACACAGCGUGGCAAAGUGGCAGUGGGUAGACUGCC [G2A U32A C37G], the self-cleavage is 0.
For GCCAGAGCUCUACACAGCGUGGCAAAGUGGCUGUGGCUUGACUGGC [G2C A11U A39U C45G], the self-cleavage was 0.01.
On to GCCAGUGCUCACCACAGCGUGGCAAAGUGGCUGUCGCUAGACUGCC [G2C A6U A12C G35C], for which the self-cleavage was found to be 0.08.
Turning to GCCGGGGCUCGACACAGCGUGGCAAAGUGGCUGUGGCUAGCCUGCC [G2C A4G A6G A11G A41C], the self-cleavage turned out to be 0.02.
As for GCCAGAGCUCGACACAGCGUGGCAAGGUGGCUCUGGUCAGACUGCC [G2C A11G A26G G33C C37U U38C], the self-cleavage was 0.
GCCAGCGCUCAACACAGCGUGGCCAAGUGGCAGUGGCUAGACUGCC [G2C A6C A24C U32A]: the self-cleavage worked out at 0.05.
The result for GCCAGCGCUCUACACAGCAUGGCAAAGUGGCUGUGGCUCGAGUGCC [G2C A6C A11U G19A A39C C42G] reads 0.01.
Take GCCUCAGCACAACACAGCGUGGCAAAGUGGCAGAGGCUAGACUGCA [G2C A4U G5C U9A U32A U34A C46A]: the self-cleavage stood at 0.02.
In the case of GCCUGAACCCAACACAGCGUGGCAAGGUGGCUUUGGCUAGACUGCC [G2C A4U G7A U9C A26G G33U], the self-cleavage stood at 0.03.
For GCCAGCGCUCAACACAGCGUGGCAAAGUGGCUGUAGCUAGACUGCC [G2C A6C G35A], the self-cleavage came to 0.13.
Consider GCCAGAGCUCACCACCGCGCGGCAAAGAGGCUGUGGCUAGACUGCC [G2C A12C A16C U20C U28A], for which the self-cleavage worked out at 0.02.
Turning to GCCGUAGCUCAACACAGCGUGGCAAUGUGGCUGUGGCUAGACUGUC [G2C A4G G5U A26U C45U], the self-cleavage was found to be 0.08.
The result for GCCAGAGCUCCACACAGCGUGGGAAAGUGACUGUGCCUAAACUGCC [G2C A11C C23G G30A G36C G40A] reads 0.01.
To GCCAGUGCUCAACACAGCGUGGCAAAGUGUCUGUGGCUAGACUUUC [G2C A6U G30U G44U C45U] belongs 0.03; to GCCAGAGCUCAACCCAGGGUGGCAAAGUGGCUGUGGCUAGACUGCC [G2C A14C C18G], 0.03.
GCCAGCGCUCAAUAAAGCGUGGCAAAGUGGCUGUGGCUAGUCUGCC [G2C A6C C13U C15A A41U]: the self-cleavage is 0.03.
To GCCAGAGCUCAACCCAGCGUGGCCAAGUGGCUGUGGCUAGGCUGCC [G2C A14C A24C A41G] belongs 0.01.
In the case of GCCAGAGCUCACCACAGCUUGGCAAAGAGGCUGUGGCUGGACUGCC [G2C A12C G19U U28A A39G], the self-cleavage came to 0.
GCCAGAGCUCUACACAGCGUGGCAAAGUGGCUGUGGCUAGACUACC [G2C A11U G44A]: the self-cleavage is 0.04.
For the variant GCCAGCGCUCAGCACAGCGUGGCAAAGUGGCUGUGGCUAGCCUGCC [G2C A6C A12G A41C], the self-cleavage turned out to be 0.02.
Regarding GCCUGAGCUCAAAACAGCAUGGCAAAGUGGCUGUGGCUAGAAUGCC [G2C A4U C13A G19A C42A], the self-cleavage turned out to be 0.11.
Regarding GCCAGAGCUCCACACAGCGUGGCAAGGUGGCUGAGGCUAGACUGCC [G2C A11C A26G U34A], the self-cleavage is 0.
To GCCGGAGCUUAACACAGCGUGGCAAAGUGGCUGUGGCUAGACUACC [G2C A4G C10U G44A] belongs 0.04; to GCCCGAGCUAAACACAGCGUUGCAAAGUGGCUGUAGCUAGACUGCC [G2C A4C C10A G21U G35A], 0.02.
For the variant GCCAGGGCUCAACACAGCGUGACAAAGUGGCUGUGGCUAGACUGCC [G2C A6G G22A], the self-cleavage worked out at 0.04.
Regarding GCCAGGGCUCAACACAGCGUGGCAAAGUGGCUCUGGCUAGACUGCA [G2C A6G G33C C46A], the self-cleavage was 0.03.
To GCCAGAGCUCAUCACAGCGUGGAAAAGUGGCUGUGGCUAGAUUGAC [G2C A12U C23A C42U C45A] belongs 0; to GCCUGAGCUCAACACAGCGUGGCAAAGUGCCUGUGGCUAGACUGCC [G2C A4U G30C], 0.05.
The result for GCCAGAGCUCGAAACAGACUGGCAAAGUGGCUGUGGCUAGACUGCC [G2C A11G C13A C18A G19C] reads 0.03.
As to GCCAGGGCUAAACACAGCGAGGCCAAGUGGCUGCGGCUAGACUGCC [G2C A6G C10A U20A A24C U34C], the self-cleavage was 0.01.
Regarding GCCAGGGCUCAACAUAGCGUGGCAAAGUGGGGGUGGCUAGACUGCC [G2C A6G C15U C31G U32G], the self-cleavage stood at 0.2.
In the case of GCCAGAGCUCAACCCAGCGUGGCAAAGUGGCUGUGGCUAGAAUGCC [G2C A14C C42A], the self-cleavage was 0.01.
Take GCCAGAGCUCACCACAGCGUGGCAAAGUGACUGUGGCGAGACUGCC [G2C A12C G30A U38G]: the self-cleavage was determined as 0.04.
GCCGGAGCUCAACACAGCGUGGCAAAUUGGCUAUUGGUAGACUGCA [G2C A4G G27U G33A G35U C37G C46A]: the self-cleavage was 0.02.
With GCCAGCGCUCAACACAGCGUGGCAAAGGGGCAGUGGCUAGACUGCA [G2C A6C U28G U32A C46A], the self-cleavage stood at 0.02.
To GCCAGAGCUCAACCCAUCGUGGCUAAGAGGCCGUGUAUAGACUGCC [G2C A14C G17U A24U U28A U32C G36U C37A] belongs 0.03; to GCCAGGGCUAAACACAGCGUGGCAAAGUGGCUGUAGCUAGACUGCC [G2C A6G C10A G35A], 0.19.
With GCCAGAGCUCGACACAGAAUGGCAAAGUGGCCGUGGCUAGACUGCC [G2C A11G C18A G19A U32C], the self-cleavage stood at 0.01.
Regarding GCCUGAGCUCAACACAGCGUGCAAAAGUGGCUAUGGCUAGACUGCU [G2C A4U G22C C23A G33A C46U], the self-cleavage was found to be 0.06.
To GCCAGAGCUCAGCUCAGAGUGGCAAAGUGGCUGUGGAUAGACUGCC [G2C A12G A14U C18A C37A] belongs 0.03; to GCCAGAGCUCAACCCAGCGUGGCAAAGUGGCUGUGGAUAGACUGCC [G2C A14C C37A], 0.03.
To GCCAGUGCUCAACACAUCGUGGCAAAGUGGCUGUGGAUAGACUGCC [G2C A6U G17U C37A] belongs 0.2; to GCCGGAGCUCAACACAUCGUGGCAAAGUGGGUGCGGCUAGACUGCC [G2C A4G G17U C31G U34C], 0.03.
With GCCUGAGCUCAACACAUCGUGGCAAAGUGGCUGUGGCUAGACUGCC [G2C A4U G17U], the self-cleavage amounted to 0.04.
With GCCCGAGCUCAACACUGCGUGGCUAAGUGGCGGUGACUAGACUGCC [G2C A4C A16U A24U U32G G36A], the self-cleavage is 0.04.
Regarding GCCAGAGCUCAUCACAGCGUGGCAAAGUGGCUGUGGCUAGAAUGCC [G2C A12U C42A], the self-cleavage is 0.04.
To GCCAGAGCUCAGCAGAGCGUGGCAAAGUGGCUGUGGCUAGACUGCC [G2C A12G C15G] belongs 0.2; to GCCGGAGCUCAACACAGCGUGGCAAAGUGGCUGUGGCUAGACUGCA [G2C A4G C46A], 0.04.
Regarding GCCUGAGCUCAACACAGCGUGCCAAAGUGGCUAUGGCUGAACUGAC [G2C A4U G22C G33A A39G G40A C45A], the self-cleavage turned out to be 0.01.
For GCCAGGGCUCAACACAGCGUGGCUAAGUGGCUGUGGCGAGACUGCC [G2C A6G A24U U38G], the self-cleavage was 0.01.
The result for GCCAGAGCUCAUCACAGCGUGGCAAAGUGGCUGUGCCUAGAAUGCA [G2C A12U G36C C42A C46A] reads 0.07; that for GCCAGUGCUCAACACAGCGUGGCAAACUGGCUGUGGCUAGACUGCC [G2C A6U G27C], 0.01; that for GCCGGAGCUCAACACAGCGUGGCAAAGUGGCUGUGGCUAGACUCCC [G2C A4G G44C], 0.27.
To GCCAGAGCUCAUCACAGCGUGGAAAAGUAGCUGUGGCUAGACUGCC [G2C A12U C23A G29A] belongs 0.13.
